Data from publication PMC4336329 (PLoS ONE, 2015).
The whole screen tested about 310,000 compounds, of which about 14,000 (4.5%) showed an effect of 50% or more. Effects have a minus sign here. Some of the results follow.

target: human ether-à-go-go-related gene (hERG) potassium channel (human, UniProt Q12809); assay: primary screen, population patch clamp on CHO cells stably expressing hERG
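Note: peak tail current of the secondary pulse compared with the same well before compound.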

human ether-à-go-go-related gene (hERG) potassium channel, sequence (Q12809 whole entry, looked up): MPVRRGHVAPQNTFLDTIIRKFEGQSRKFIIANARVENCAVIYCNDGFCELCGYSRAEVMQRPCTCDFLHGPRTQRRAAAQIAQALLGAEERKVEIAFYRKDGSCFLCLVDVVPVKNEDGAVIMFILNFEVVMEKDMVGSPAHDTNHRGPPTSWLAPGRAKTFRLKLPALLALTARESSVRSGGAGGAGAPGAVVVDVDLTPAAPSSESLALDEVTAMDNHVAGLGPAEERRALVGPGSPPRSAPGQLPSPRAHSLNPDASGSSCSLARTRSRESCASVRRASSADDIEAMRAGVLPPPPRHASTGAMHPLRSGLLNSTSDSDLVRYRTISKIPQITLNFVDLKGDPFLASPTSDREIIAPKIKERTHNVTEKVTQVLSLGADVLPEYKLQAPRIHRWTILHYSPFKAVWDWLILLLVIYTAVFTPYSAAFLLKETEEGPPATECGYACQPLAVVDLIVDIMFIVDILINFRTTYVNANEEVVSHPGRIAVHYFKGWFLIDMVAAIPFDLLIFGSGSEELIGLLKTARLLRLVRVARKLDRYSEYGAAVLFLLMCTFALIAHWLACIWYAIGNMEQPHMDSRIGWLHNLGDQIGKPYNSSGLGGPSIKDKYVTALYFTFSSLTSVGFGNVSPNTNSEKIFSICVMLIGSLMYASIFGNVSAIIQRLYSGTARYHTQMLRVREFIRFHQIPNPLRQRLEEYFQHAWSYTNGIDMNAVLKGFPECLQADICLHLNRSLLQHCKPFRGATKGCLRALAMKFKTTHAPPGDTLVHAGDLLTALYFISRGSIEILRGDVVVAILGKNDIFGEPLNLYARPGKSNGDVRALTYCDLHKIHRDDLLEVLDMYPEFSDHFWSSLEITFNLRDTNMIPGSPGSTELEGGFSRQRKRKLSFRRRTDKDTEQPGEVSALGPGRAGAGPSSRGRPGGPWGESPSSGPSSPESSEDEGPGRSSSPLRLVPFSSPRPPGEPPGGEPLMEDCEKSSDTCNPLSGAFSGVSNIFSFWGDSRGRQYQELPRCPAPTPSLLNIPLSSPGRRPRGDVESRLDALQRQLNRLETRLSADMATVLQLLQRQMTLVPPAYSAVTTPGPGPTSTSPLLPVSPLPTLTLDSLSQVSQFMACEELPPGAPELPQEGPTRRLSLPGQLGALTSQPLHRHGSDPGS

SMILES | hERG current change (%, negative = inhibition) at 10uM [%]
O=C(CCC(=O)Nc1nnc(C2CCCCC2)s1)NCC1CCCO1 (centres unmarked) | 12.9
Cc1nn(Cc2ccc(Cl)c(Cl)c2)c(C)c1NC(=O)c1cn(-c2ccccc2)nc1-c1ccccc1 | 3.3
Cc1ccc(-n2c(-c3nn(C)cc3Cl)n[nH]c2=S)cc1 | 44.5
Cc1cccc(N=C2NC(=O)/C(=C/c3cccnc3)S2)c1C | 1.97
O=C(CN(C(=O)c1csnn1)c1ccccc1)NCc1ccc2c(c1)OCO2 | -36.6
NC(=O)CC(NC(=O)c1ccccc1)c1ccc(NC2CCCCCCC2)c([N+](=O)[O-])c1 (centres unmarked) | 13.8
CCN(c1ccccc1)S(=O)(=O)c1ccc(C(=O)NCCCn2ccnc2)cc1 | 10.5
CCCCN(CC)CCCNC(=O)Cn1nc(Cc2ccncc2)c2ccccc2c1=O | -11.1
COc1ccc(NC(=O)CN(C)C(=O)CCCNC(=O)c2ccc(Cl)cc2)cc1 | -30.8
COc1ccc(NC(=O)c2ccc(NC(=O)CSc3nc(N)cc(=O)[nH]3)cc2)cc1 | 11.9
O=C(Nc1nnc(-c2cc(Cl)ccc2Cl)o1)c1ccco1 | -36.1
CCOC(=O)C1=C(C)Nc2sc(C(=O)c3ccc(F)cc3)c(N)c2C1c1ccc(C(=O)OC)cc1 (centres unmarked) | 12.6
CCc1nn(C(C)C(=O)NC(C)CCc2ccco2)c(=O)c2cc3occc3n12 (centres unmarked) | -34.8
COCCN(C(=O)COC(=O)c1oc2ccc(OC)cc2c1C)c1c(N)n(Cc2ccccc2)c(=O)[nH]c1=O | -7.79
C/C(=N\NS(=O)(=O)c1ccc(C)c([N+](=O)[O-])c1)c1cccs1 | 13.8
CCCCNS(=O)(=O)c1ccc2nc(-c3cccnc3)cc(C(=O)NCCCOCC)c2c1 | -3.7
CCC(=O)Nc1ccc(C(=O)N/N=C/c2c(C)[nH]c3ccccc23)cc1 | 17.1
CNC(=O)COc1ccc(-c2nn(C)c(=O)c3ccccc23)cc1 | 9.65
CCOc1ccc(CN2CCN(CCCn3cccn3)CC2CCO)cc1 (centres unmarked) | -80.1

SMILES | hERG current change (%, negative = inhibition) at 10uM [%]
CCOC(=O)c1nc(NNC(C)=O)sc1C | 12
CC1CN(C(=S)Nc2ccccc2)N(c2ccccc2)C1 (centres unmarked) | 3.77
C/C(=N\Nc1ccc([N+](=O)[O-])cc1)c1cccc(N)c1 | -22.9
CCOC(=O)CCC(=O)Nc1cccc([N+](=O)[O-])c1 | -2.79
Cc1ccnc(NS(=O)(=O)c2ccc(NC(=O)CC(C)c3ccccc3)cc2)n1 (centres unmarked) | 20.7
CC(C)n1nc(C(=O)OCC(=O)N(C)C2CCS(=O)(=O)C2)c2ccccc2c1=O (centres unmarked) | 5.75
Cl.Cn1nnc(C(O)CNCc2cccs2)n1 (centres unmarked) | 9.06
O=C(CCc1cn2ccccc2n1)NC1CCCc2c1cnn2-c1ccccc1F (centres unmarked) | 0.178
CCc1ccc(OCC(=O)NC(=S)Nc2ccc(C)cc2C)c(Br)c1 | 7.39
Cc1cc(C(=O)CSc2nnc(-c3ccccc3)n2C)c(C)n1C | -22.5
CC(=O)c1cccc(NC(=O)Nc2cc3sccc3n2C)c1 | 5.42
O=C(Nc1ccc(OCc2ccccc2)cc1)c1cccs1 | 13.7
OCCOCCOCCn1c2ccccc2c2ccccc21 | -2.67
Cc1ccc(C(C(=O)NC2CCCC2)N(C(=O)c2csnn2)C2CC2)cc1 (centres unmarked) | -1.48
CSc1nc2sc3c(c2c(=O)[nH]1)CCC3 | 8.02
Cc1cc(C)c(OCCOCCN2CCCC2)c(C)c1 | -20.2
CCOC(=O)c1ccc(NC(=O)Nc2ncccc2C)cc1 | -5.35
O=C(O)COCC(=O)Nc1ccc(-n2cnnn2)cc1 | 17.2
CCOC(=O)c1c(C)sc2c1N(C(=O)CN(CC)CC)c1cc(Cl)ccc1S2 | -21

SMILES | hERG current change (%, negative = inhibition) at 10uM [%]
Cc1no[n+]([O-])c1COc1ccc(/C=C(\C#N)C(N)=O)cc1 | -35.4
O=[N+]([O-])c1cccnc1Oc1ccc(C2SCCS2)cc1 | 5.72
CC(c1ccccc1)C(CC(=O)O)C(=O)NC1CCCCC1 (centres unmarked) | 24
COc1ccc(C(=O)NNC(=O)CN2CCC(n3nnc4cc(C)ccc43)CC2)cc1 | -15
O=C(NCc1ccco1)c1ccc2c(c1)N(Cc1ccccc1)C(=O)CS2=O (centres unmarked) | -0.828
CCCc1ccc(OC(=O)c2ccc(O)cc2Cl)cc1 | -1.26
Cc1ccc(C)c(NC(=O)c2oc(=O)c3ccccc3c2-c2ccccc2)c1 | -16.4
C=CCn1c(CCNC(=O)c2cccs2)n[nH]c1=S | 2.16
Cc1ccc(C)c(N(C(=O)c2ccco2)C(C(=O)NC2CCCC2)c2ccco2)c1 (centres unmarked) | 2.25
NC(=O)c1ccc(NC(=O)CCc2nc3sc4c(c3c(=O)[nH]2)CCCC4)cc1 | 6.99
Cc1ccc(S(=O)(=O)Nc2nc3ccccc3nc2NCC2CCCO2)cc1 (centres unmarked) | 2.28
CN(CC(=O)Nc1ccc(S(=O)(=O)N2CCCC2)cc1)Cc1c(F)cccc1Cl | -7.41
c1ccc(CCOn2ccnc2)cc1 | 11.7
CCCNc1c(NC(=O)C2CCC(C)CC2)c(=O)oc2ccccc12 (centres unmarked) | 8.35
CCOc1ccc(CNC(=O)CCSCc2ccccc2F)cc1OC | 5.18
Cc1ccc(S(=O)(=O)CCC(=O)OC(C)C(=O)c2c(C)[nH]c3ccccc23)cc1 (centres unmarked) | 3.68
OCCC1CN(Cc2cnc(N3CCCC3)s2)CCN1C1CCCC1 (centres unmarked) | -7.38
CCN(CC)c1ccc(/C=C2\C(=O)NC(=O)N(Cc3ccco3)C2=O)cc1 | -4.07
